These results are taken from PubChem BioAssay (NCI).

Molecules are shown by their SMILES.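 How tested: cells in 96-well plates exposed to compound for 48 hours at five concentrations. GI50 marks 50% less growth. At the TGI there is no net growth.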

The subject of this test is NCI-H322M lung. The experiment in a line: inhibition of tumour cell growth, NCI panel, 48 h.

With `CC(=O)OC[C@]12CC[C@@H](C(=O)/C=C/c3cccnc3)[C@@H]1[C@H]1CC[C@@H]3[C@@]4(C)CC[C@H](OC(C)=O)C(C)(C)[C@@H]4CC[C@@]3(C)[C@]1(C)CC2`, the GI50 was 2.51 µM and the TGI turned out to be 6.7 µM.

`CC[C@]12C=CCN3CC[C@]4(C(=C(C(=O)OC)C1)Nc1cc5c(cc14)[C@@H]1[C@H](O5)[C@@H](O)[C@@]4(CC)CC(C(=O)OC)=C5Nc6cc(OC)ccc6[C@@]56CCN1[C@@H]46)[C@@H]32`: the GI50 was 0.264 µM and the TGI amounted to 7.18 µM.

On to `O=C(CCCCCCNC(=O)C(O)(O)C(F)(F)F)Nc1ccc(Br)cc1`, for which the GI50 was 5.75 µM and the TGI was over 33 µM.
